# Experimental data as given in the supplement of paper PMC10441789.
# Some of the results follow. Antibody binding of pooled human sera (four to six donors per pool; dilution not stated) to peptides of the Trypanosoma cruzi antigen TSSA on microarrays. Quantile-normalised fluorescence in arbitrary units, mean of duplicate arrays; higher = more binding. No active / inactive call. The uninfected pools are read here as the healthy donors of the same country. The strongest signals lie near the top of the scale (about 60,000).
# System: pooled sera of chronic Chagas disease patients, Mexico
# Test: antibody binding signal (normalised fluorescence) (arbitrary fluorescence units); higher = stronger serum antibody binding to peptide
# Method: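 Microarray of 15-residue peptides over residues 30-55 of Trypanosoma cruzi TSSAII, each with 1 to 10 substitutions at naturally variable positions, probed with one serum pool per country.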
row,Sequence,antibody binding signal
1,KKTAAGETPSQPGAS,241
2,GTEKKAAAGETPSQS,849
3,KENKTATGETPSPPG,269
4,EKKTATGGTPSQSGA,1120
5,TDNKTATGGAPSPSG,384
6,PSGTENKTAAGGAPS,5040
7,GKDKKTAAGEAPSQS,659
8,TPPSGTEKKTAAGEA,4230
9,TISTPPSGKENKTAA,3490
10,SSTPPSGKEKKPAAG,27000
11,TENKAAAGGTPSPSG,357
12,TENKAAAGETPSPSG,255
13,KENKPATGGAPSQPG,724
14,KENKPAAGETPSQSG,564
15,SSTPPSGKEKKTATG,24500
16,GTDKKTATGGTPSPS,555
17,PSGTEKKPATGGTPS,6220
18,TEKKAATGETPSQPG,345
19,TENKPAAGEAPSPSG,547
20,EKKAATGEAPSQPGA,714

row,Sequence,antibody binding signal
1,GTENKAATGETPSQP,1470
2,GTEKKPATGEAPSPP,2190
3,PPSGTEKKTAAGEAP,1640
4,GTENKPATGETPSPP,2720
5,SSTPPSGKEKKAAAG,11300
6,GKENKTATGGAPSQP,5240
7,EKKTAAGGAPSQSGA,450
8,KPATGGTPSQSGASS,592
9,GKDNKAAAGEAPSPS,1940
10,TSSTPPSGKEKKPAA,35400
11,TSSTPPSGKDKKAAA,46500
12,NKAATGETPSQPGAS,219
13,SGKDNKPAAGEAPSQ,867
14,TDKKPAAGETPSPSG,217
15,PSGTENKAATGGAPS,4010
16,EKKPATGGTPSPPGA,717
17,DNKPATGETPSPSGA,213
18,SGKDNKPAAGGTPSP,973
19,KKPATGETPSPSGAS,286
